Results as given in the RNAGym collection of RNA variant scans (doi:10.7554/elife.90254).
The source gives no read counts; variants with many changes may rest on few reads.

B1: LINE1-mini (parent)
chain: GGCAGAGCUCAACACAGCGUGGCAAAGUGGCUGUGGCUAGACUGCC

Variants of: B1
Assay: self-cleavage, relative activity (ratio to wild type); higher = more cleavage; in vitro, sequencing; the parent is a self-cleaving ribozyme

| Variant | self-cleavage |
| --- | --- |
| G17C G21C G36U U43G G44U | 0.01 |
| A16G U28G G30C G40A | 0.01 |
| G17A G22C A24C A25C G36U G44C | 0.05 |
| A16C G17U C18U U20C U32G | 0.2 |
| G17A U20G C45U | 0.94 |
| G17C C18A A39C | 0.08 |
| A16U G21A U28C U34A U43C | 0.03 |
| G17C G35U G36A G40C | 0.02 |
| A16G A24C G40C | 0 |
| G17C U28C U38C | 0.33 |
| A16G G19U C23A G40C | 0.16 |
| A16C G33C C42U | 0.13 |
| A16G C18A G30A A39C | 0.06 |
| A16G G27U G33U | 0.06 |
| G17C C37G G40C | 0.05 |
| A16C G22C C31U G33A C46G | 0.02 |
| A16U G19A A24G A25U U28G G35C A39G C46G | 0.01 |
| G17U A24G G36C A39G | 0.07 |
| A16C G29A G36A | 0.04 |
| A16C U28C G35U A39C | 0 |
| G17A G22C A25G C31A U34C | 0.01 |
| A16G A24U U32A G35C G44C | 0.02 |
| G17C C18A G22U C31U G35A | 0.01 |
| A16U G17U C18A G19U | 0.08 |

| Variant | self-cleavage |
| --- | --- |
| G17A C23U G33U G35U U43A G44C | 0.02 |
| G17A A24U A25U C37U | 0.02 |
| A16C G17A G29U G40C C46U | 0.01 |
| A16U G27A U28G G29U U32G G36U G40A | 0.11 |
| A16U A25C G29A G35U U38C | 0.02 |
| G17C G30A G35A | 0.02 |
| G17C C18A G19A U32C | 0.16 |
| A16U A26U G30A | 0.09 |
| G17A G36C G40C | 0.04 |
| A16G U20G G29C C37U C45U | 0.01 |
| G17A G29A C37G | 0.02 |
| G17A C18G G30A | 0.11 |
| A16G G30U C37U U38C | 0.04 |
| G17A A41U C42G | 0.02 |
| G17C U38G U43C | 0.01 |
| G17C C18U C45U | 0.03 |
| A16C G40U U43A G44U | 0.06 |
| G17C G27A U32C | 0.1 |
| A16G G22A U38A C45U | 0.46 |
| G17A A39G A41U | 0.05 |
| A16G U20A C45U | 0.07 |
| A16G A24G C31U | 0.02 |
| G17C G22C C42A | 0.42 |
| A16G G19A C37U C45A | 0 |

| Variant | self-cleavage |
| --- | --- |
| A16G A26C G29U U43A | 0.01 |
| A16U G33U C42U | 0.24 |
| A16C G30C U32G C37U | 0.03 |
| G17A A24C U28G C46G | 0.04 |
| G17A A26G G35A G40C | 0.05 |
| A16U U38A C45U | 0.08 |
| A16C G17C G19U G22U C31U | 0.01 |
| G17C A24G U28G C31G C45U | 0.08 |
| G17A G19C U43G | 0 |
| A16G G19U C46G | 0.54 |
| A16U G17A C23U A26G | 0.01 |
| A16C G22A A25C | 0.22 |
| G17C U20C U43A | 0.05 |
| G17A G22U G36C | 0.03 |
| G17C C23A A24U U34G U43A | 0.05 |
| G17C G27U G33U G40C C46U | 0.01 |
| A16G G27C C45G | 0.07 |
| G17C G29A G30U G36U C45U | 0.01 |
| G17C C31A G35U | 0.06 |
| A16C G35U G40U | 0.08 |
| G17A C18G C37A | 0.03 |
| G17C U34G G40A | 0.05 |
| A16C G22A G30C C31G C45U | 0.69 |
| A16U C37G C42A | 0.05 |

| Variant | self-cleavage |
| --- | --- |
| A16C U20A G36A A39C G44C | 0 |
| A16G G17U A26U G27U G40C | 0 |
| G17A C18U C37U C45G | 0.1 |
| G17C G30U U38C | 0.07 |
| A16G A26G C31G C42U | 0 |
| A16G C18A C46A | 0.09 |
| G17C C31U U32G G35A | 0.06 |
| G17C A26U G27C | 0.3 |
| G17C C18G G19U A25C G30C G44U | 0.02 |
| A16C G29U G36U | 0.04 |
| G17C C31G U34C C42U | 0.05 |
| A16U U20G G29C | 0.2 |
| A16C G19U G22U | 0.08 |
| A16C U28A G29U A41C C42U | 0.06 |
| A16U U28A G29U G36A | 0.25 |
| A16C U20A C42A | 0.04 |
| A16C G27C G29A G30U G36A U38A | 0.05 |
| A16U G21U C37G | 0.02 |
| G17A G19A A26C G27C G30C U34G | 0.01 |
| A16G C31A A41C C42G C46U | 0.01 |
| A16U C23G G40A A41C C42G | 0.09 |
| A16U C23G U38G | 0 |
| G17U A25G G27U G36A | 0.07 |
| A16G G33U C37A | 0 |

| Variant | self-cleavage |
| --- | --- |
| G17C A25C G35A | 0.05 |
| G17A G36C C42U C46A | 0.01 |
| A16G G19C U20G | 0.2 |
| G17A U34G C37A | 0.04 |
| A16U G21C G33U A39U | 0.02 |
| A16C G33U G44U | 0.1 |
| A16C G17U U32A U34A G36C A41U | 0.01 |
| G17C G35A C37A C45G | 0.04 |
| A16G G17C G19C G27U | 0.14 |
| G17C G35A C37A A41G C45A C46A | 0.01 |
| G17U C18A G29U | 0.21 |
| A16U G19A G22C | 0.16 |
| A16G C37U U38C U43C C45G C46G | 0.01 |
| A16C G19A U28G G33C | 0.01 |
| A16G G33C G44U | 0 |
| G17C U20G C42G C46G | 0.03 |
| A16G G19C G22C U32C U38A U43C | 0 |
| G17A G40C A41U | 0.03 |
| G17A A25G A26G C37A | 0.04 |
| G17C G19A G30A | 1.5 |
| A16G C18G C45U | 0.07 |
| A16U C18G C31U C45A | 0.03 |
| A16C C42G C46U | 0.17 |
| G17U C18A U20G G29U U32C U38G | 0.02 |

| Variant | self-cleavage |
| --- | --- |
| G17U C18G G21A U28G C46U | 0.06 |
| A16G U20A G36A | 0.03 |
| G17C G21U U28G C31G G40A | 0.02 |
| A16G C37G U43G | 0 |
| G17U A24C G27A A41G | 0.09 |
| G17C A25C G36A | 0.1 |
| G17U A25C U28C | 0.32 |
| G17A C45G C46G | 0.02 |
| A16U A25G C31G U38C G44U | 0 |
| G17C G27U G33U | 0.03 |
| A16C G21U G30A U34C | 0.03 |
| G17A U20A G35C | 0.02 |
| G17C C18G G30U | 0.22 |
| A16U G22A U34C | 0.03 |
| A16C G21A G40C C45A | 0.03 |
| G17U C18A G30U | 0.15 |
| G17U C18A G30C | 1.46 |
| G17A U32A C42U C45G | 0.01 |
| G17A C42A C46U | 0.01 |
| G17C G21A G30A U34G | 0.03 |
| A16C G19U U20A G36A G44A | 0.2 |
| G17C A24C A26G G33A U34A | 0.02 |
| A16U U20A G27A G29U | 0.16 |
| A16G G36A A41C | 0.03 |

| Variant | self-cleavage |
| --- | --- |
| G17A G30U G35U | 0.04 |
| G17A A25C G44A | 0.05 |
| A16U G30C U38C | 0.32 |
| A16U G29C G40C | 0.02 |
| G17A G19U U34C C42U | 0.09 |
| A16U C23U G29A | 0.11 |
| G17C G22A G36U | 0.05 |
| A16G G21C C45U | 0.22 |
| G17A G19C U28C G30C C45A | 0.01 |
| A16G G22U G35U | 0.02 |
| A16G G35U C37A | 0.05 |
| G17C A26G A39U C45U | 0.04 |
| A16C G17U G29U C46G | 0.04 |
| A16G G21A G33U | 0.07 |
| G17C G35C G40U C46U | 0.04 |
| A16U G17U G27A U32G | 0.32 |
| A16G U20A G27C U34C C42A | 0.02 |
| G17C U28C G36U | 0.01 |
| G17C U28G G33C G35C G36U | 0.01 |
| A16U G19U G44A C45U C46U | 0.04 |
| G17C A24U U28C G36C A41G | 0.05 |
| G17A A25C G27U | 1.1 |
| G17C C31U A39G | 0.03 |
